The values that follow come from ChEMBL document CHEMBL1156829.

The full ranking holds about 5,400 compounds; the median of “IFI” is about 2, and the highest 2% start at about 22. The list shows a part of the results.

A short description of this assay: NOVARTIS: Inhibition Frequency Index (IFI) - the number of HTS assays where a compound showed > 50% inhibition/induction, expressed as a percentage of the number of assays in which the compound was tested. It counts as functional.
`CCCCCC[n+]1ccccc1C=Cc1ccc(N(C)C)cc1` gave an IFI of 27.6%.

The molecule `O=C(Nc1ccc2c(c1)CN(C1CCSCC1)CC2)C1(c2ccccc2)CC1` had an IFI of 0%.

`O=C(c1ccc2nc(N3CCCCC3)sc2c1)N1CCN(Cc2ccc3c(c2)OCO3)CC1` showed an IFI of 2.86%. Then `O=C1c2ccccc2C(=O)c2c1ccc1nonc21`, with 30.8%; and `O=C(O)CSc1ccc(C(=O)NC2CCCCNC2=O)cn1` (stereo unspecified), with 1.39%; and `COc1ccc(C2CC(=O)C3=C(C2)NC(C)=C(C(=O)OC2CCCC2)C3c2ccccc2C)cc1OC` (stereo unspecified), with 4.76%. Regarding `CN(C)CCNC(=O)c1cc2c(-c3ccc(Cl)cc3)nn(C)c2s1`, the IFI was 7.69%. Then `CC(C)CC(=O)Nc1nnc(-c2ccc(Br)cc2)s1`, with 0%; and `CC(C)CNC(=O)c1cnc(NCCCn2ccnc2)nc1Nc1ccccc1`, with 1.92%. The molecule `CCCC(C)C(C(=O)NCc1ccccc1)N1C(=O)c2cc(NC(C)=O)ccc2NC(=O)[C@@H]1c1ccccc1` (stereo partly specified) showed an IFI of 2.44%. `COc1ccc(-n2nc(C(C)(C)C)cc2NC(=O)CN(C(=O)c2ccc(C)c([N+](=O)[O-])c2)C(C)C)cc1` came in with an IFI of 0.82%.

`COCCn1nnnc1C(c1cc2cc3c(cc2[nH]c1=O)OCCO3)N1CCC(O)CC1` (stereo unspecified) registered an IFI of 0%. Next, `Cc1cccc(NC(=O)CCCn2c(=O)c3cccn3c3ccccc32)c1C`: 3.45%; `Cc1nnc(Nc2ccc(F)cc2)c2ccccc12`: 0%.

Molecule `CSc1ccc(/C=C/C(=O)NC(=O)c2ccccc2O)cc1` yielded an IFI of 7.69%. Then `CCCOC(=O)C1=C(C)NC2=C(C(=O)CC(c3ccc(OC)c(OC)c3)C2)C1c1ccccc1F` (stereo unspecified), with 2.35%; and `OCCNc1nc(Nc2ccccc2)nc2ccccc12`, with 1.44%; and `Cc1ccn2c(NC(C)(C)CC(C)(C)C)c(-c3ccccc3OC(=O)c3ccc(Br)cc3)nc2c1`, with 5.26%.

Regarding `COc1ccccc1C1CC(=O)N2CN(Cc3ccccc3)CSC2=C1C#N` (stereo unspecified), the IFI came out at 0%. Then `CCCCn1nccc1Nc1cc(C)c(C#N)c2nc3ccccc3n12`, with 3.23%. On to `CC(=NOC(=O)c1ccco1)c1cnccn1`, for which the IFI was determined as 2.63%. Then `O=C(c1cccc(F)c1)N1CCN(Cc2ccncc2)CC1`, with 0%. Next, `COc1ccc(NC(C)=C2C(=O)c3ccccc3C2=O)c(OC)c1`: 15.4%. Next, `CN1CCC(N[C@@H]2C[C@@H](C(=O)N3CCN(c4cccc(C(F)(F)F)c4)CC3)N(Cc3ccccc3Cl)C2)CC1`: 1%. In turn, `CC[n+]1c(/C=C2\Sc3ccccc3N2CCO)ccc2cc(C)ccc21` showed an IFI of 6.35%. Next, `Cc1ccc(N=C2NC(=O)/C(=C\c3cc(C)n(-c4cccc([N+](=O)[O-])c4)c3C)S2)cc1`: 2.35%. Molecule `c1ccc2c(NCCc3c[nH]cn3)c3ccccc3nc2c1` showed an IFI of 9.09%. Then `CCOC(=O)c1cc(S(=O)(=O)NCc2ccc(F)cc2)n[nH]1`, with 0%. In the case of `COc1cccc(-c2ccc(O)c(CNC34CC5CC(CC(C5)C3)C4)c2)n1`, the IFI stood at 3.45%. Next, `c1ccc(-c2nc3cc4ccccc4cc3nc2-c2ccsc2)cc1`: 2.94%. Then `O=c1c2ccccc2nc2n1CCN2Cc1ccc(Cl)cc1`, with 7.58%; and `CC(C(=O)NCCCN)N(Cc1ccccc1)S(C)(=O)=O` (stereo unspecified), with 3.92%. Consider `Cc1ccc(C(=O)NCCCCNc2ccnc3cc(Cl)ccc23)cc1[N+](=O)[O-]`, for which the IFI is 2.1%. Take `C=CCNc1ncnc2c1c(-c1ccccc1)cn2-c1ccccc1`: the IFI is 0%. Regarding `CCN(CC)C(=O)c1cn(C2CCN(C(=O)CCc3cccc(OC)c3)CC2)nn1`, the IFI turned out to be 0.877%.

Turning to `CN1/C(=C/C=C/c2oc3ccccc3[n+]2C)Oc2ccccc21`, the IFI was found to be 21.1%. Regarding `C=CCc1cccc(C=NNc2nc3ccccc3[nH]2)c1O`, the IFI is 0%.

The molecule `CN1C=CC(=Cc2sc3ccccc3[n+]2C)C=C1` had an IFI of 0%.

With `COc1ccc(C2C3=C(O)CC(C)(C)CC3=Nc3[nH]nc(C)c32)cc1` (stereo unspecified), the IFI came to 5.2%. The molecule `CON(C)C=C(C(=O)Nc1ccc(C(F)(F)F)cc1)C(=O)Nc1ccc(C(F)(F)F)cc1` returned an IFI of 3.9%. Molecule `C#CCN1c2ccccc2Sc2cccnc21` returned an IFI of 6.17%. `CCCc1cc2c(=O)c(-c3cc4ccccc4o3)coc2cc1OC(C)C(=O)OCC` (stereo unspecified) had an IFI of 4.76%. Then `C=CCOc1cccc(C(Nc2cccc(C)n2)c2ccc3cccnc3c2O)c1` (stereo unspecified), with 0%; and `NN1C(=O)NC(=O)C1Nc1cccc([N+](=O)[O-])c1` (stereo unspecified), with 0%. Then `CN(CCCNc1ccnc2cc(Cl)ccc12)S(=O)(=O)c1ccc(Cl)c([N+](=O)[O-])c1`, with 1.89%; and `CCc1ccc2ncc(C(=O)OCCOC)c(O)c2c1`, with 0%; and `Cc1cccc(-c2nc3cc(NC(=O)c4ccc([N+](=O)[O-])o4)ccc3o2)c1`, with 0%. Next, `Cc1cc(C)cc(Nc2cc(C)nc3ncnn23)c1`: 0%. As for `CCC(C(=O)Nc1sccc1C#N)c1ccccc1` (stereo unspecified), the IFI is 0%.

Take `CC(C)CNC(=O)c1cnc(NCCCN(C)C)nc1NCCc1ccccc1`: the IFI was 0.962%. Then `COc1cccc2c(C)cc(NCc3ccccc3Cl)nc12`, with 0%; and `CC1=CC(=Cc2sc3ccccc3[n+]2C)C=C(C)O1`, with 16.7%. Then `CCCCNC(=O)C1CCC(CN(Cc2c(Cl)cccc2Cl)S(=O)(=O)c2ccc(Br)cc2)CC1` (stereo unspecified), with 0%; and `CCOc1ccc(N(C(C)=O)C2=C(N3CCN(C)CC3)C(=O)c3ccccc3C2=O)cc1`, with 9.09%. Then `CCCCCN(C(=O)c1ccc(C)cc1)C(CC)c1nc2ccccc2c(=O)n1-c1ccccc1OC` (stereo unspecified), with 1.89%; and `CCOc1ccc(-c2nc(NC(=O)CS(=O)(=O)c3ccccc3)sc2C)cc1`, with 0%. On to `Cc1ccccc1Nc1nc(NCc2ccco2)c2ccccc2n1`, for which the IFI was found to be 7.14%. The molecule `O=C(c1ccc(-n2c(SCc3ccc(Cl)cc3)nc3ccccc3c2=O)cc1)N1CCOCC1` gave an IFI of 0%. `CN(C)c1ccc(/C=C/c2cccc[n+]2C)cc1` returned an IFI of 6.3%. `Cn1c(=O)c2c(ncn2CC(O)CN=C2CCCCN2)n(C)c1=O` (stereo unspecified) came in with an IFI of 0%.

`CC(C)CN(CC(=O)Nc1cc(C(C)(C)C)nn1-c1ccccc1)C(=O)Cc1cccs1` gave an IFI of 0.935%.

`O=C(Nc1ccc(-c2nc3cc(-c4nc5ccccc5o4)ccc3[nH]2)cc1)c1ccc([N+](=O)[O-])cc1`: the IFI came to 5.88%. Then `CN(C)c1ccc(/C=C2\N=C(c3ccccc3F)OC2=O)cc1`, with 0%; and `O=c1c(-c2ccc(Cl)cc2Cl)c(C(F)(F)F)oc2c(CN3CCCCC3)c(O)ccc12`, with 1.22%. As to `CCOC(=O)c1sc(=S)n(-c2ccc(N(C)C)cc2)c1N`, the IFI is 1.54%. Turning to `COC(C)(C)CNCc1cc2cc3c(cc2n(Cc2cccc(C(F)(F)F)c2)c1=O)CCC3`, the IFI is 2.94%.
